Data on 92 molecules can be found in PubChem BioAssay AID1159614 (National Center for Advancing Translational Sciences (NCATS), 2016).

Structures are written as SMILES. Out of some 45,000 compounds screened, about 65 (0.1%) were called active. Calls come from the whole dose curve; as a rule, active = well fitted activation curve with a large enough effect; inconclusive = small, poorly fitted or top-dose-only effect; inactive = no such curve, though single readings can be large or run the other way. This is one part of the list.

The test addresses Galactocerebrosidase (Homo sapiens) (UniProt P54803). Briefly: A Novel Cell-Based Assay to Identify Small Molecules for B -Galactocerebrosidase. Note: 0% is about no effect; nearly all actives have a fitted effect of over 65% in size. The settings on record: 145M-Twi-hGALC-G270D cells (Twitcher mouse brain line with human GALC G270D), HMU-beta-Gal fluorescence, 48 h; series mostly up to 57.5 µM; activation: at the top concentration. The method, boiled down: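 Mutant human GALC (G270D), stably expressed in a Twitcher mouse brain cell line lacking endogenous GALC, is measured in live-treated cells via 6-hexadecanoylamino-4-methylumbelliferyl-β-galactoside hydrolysis (0.1 mM final, pH 5.2) with fluorescent detection.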
Chain of UniProt P54803 (P54803 whole entry, looked up): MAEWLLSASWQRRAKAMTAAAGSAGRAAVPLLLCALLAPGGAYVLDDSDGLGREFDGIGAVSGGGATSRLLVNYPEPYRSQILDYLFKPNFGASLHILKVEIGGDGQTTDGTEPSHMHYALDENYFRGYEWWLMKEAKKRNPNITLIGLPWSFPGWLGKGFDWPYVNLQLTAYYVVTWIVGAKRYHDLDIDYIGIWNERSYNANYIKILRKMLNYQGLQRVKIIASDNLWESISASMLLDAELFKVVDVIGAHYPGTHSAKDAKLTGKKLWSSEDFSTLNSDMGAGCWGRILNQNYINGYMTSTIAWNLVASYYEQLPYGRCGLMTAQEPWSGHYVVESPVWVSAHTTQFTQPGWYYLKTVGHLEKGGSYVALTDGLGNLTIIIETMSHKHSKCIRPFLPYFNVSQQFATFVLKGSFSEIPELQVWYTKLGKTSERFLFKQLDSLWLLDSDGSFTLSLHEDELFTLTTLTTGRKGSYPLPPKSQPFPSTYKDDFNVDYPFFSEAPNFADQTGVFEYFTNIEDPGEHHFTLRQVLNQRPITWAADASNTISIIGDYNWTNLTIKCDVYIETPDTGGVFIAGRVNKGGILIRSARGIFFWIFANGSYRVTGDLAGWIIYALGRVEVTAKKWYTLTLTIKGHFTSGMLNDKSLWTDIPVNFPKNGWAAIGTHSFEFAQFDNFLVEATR
As for `CCOc1ccc(-n2c(SCc3nc(-c4ccccc4C)no3)nnc2-c2ccccc2)cc1`, the “activation” value is inactive: -4.95%.

Consider `CN(C)c1ccc(CNc2nc(-c3ccco3)nn2C(=O)c2cccc([N+](=O)[O-])c2)cc1`, for which the “activation” value is inactive: -15.7%.

Consider `CCCn1c(=O)c2sccc2n2c(CCCC(=O)NCCOC)nnc12`, for which the “activation” value is inactive: -6.07%. For `COc1cccc(CN2C(=O)c3ccccc3C2C(=O)NCCc2ccc(OC)c(OC)c2)c1` (configuration not stated) the value was inactive: -6.62%; for `CC(C)CC(=O)Nc1ccc(C(=O)OCc2cc(=O)n3nc(C4CCCCC4)sc3n2)cc1`, inactive: -16.7%; for `Cc1nc(N2CCCC2)ncc1C(=O)Nc1ccccc1`, inactive: -8.16%.

Take `COc1ccccc1NC(=O)CSc1ncc2c(n1)-c1cc(Cl)ccc1N(C)S2(=O)=O`: the “activation” value is inactive: -18.7%. For `Cc1cc(O)c(C(c2cccc(Cl)c2)N2CCN(c3ccccc3)CC2)c(=O)n1Cc1ccco1` (configuration not stated) the value was inactive: -6.49%.

Regarding `CC(=O)N1CCCc2cc(S(=O)(=O)N3CCCC(C(=O)NCc4ccc(Cl)cc4)C3)ccc21` (configuration not stated), the “activation” value was inactive: -24.5%. For `CN(C)c1ccc(CN(CC2CCCO2)C(=O)COc2ccc(Cl)cc2)cc1` (configuration not stated) the value was inactive: -3.06%; for `CCc1ccc(-n2c(C)nc3cc(C(=O)NCCc4ccccc4)ccc32)cc1`, inactive: -12.4%.

As to `COc1ccc(NC(=O)Cn2c(=O)n(-c3ccc(Cl)cc3)c(=O)c3c(C)c(C(=O)N(C)C)sc32)cc1Cl`, the “activation” value was inactive: -17%. `CC(Sc1ncc(S(=O)(=O)c2ccc(C(C)C)cc2)c(N)n1)C(=O)Nc1ccccc1` (configuration not stated): the “activation” value is inactive: -5.18%. For `CCOC(=O)c1cc(-c2ccc(F)cc2)n(CCC(=O)Nc2ccccc2OC)c1C` the value was inactive: -1.5%; for `COC(=O)c1ccc2nc(C)cc(Nc3ccc(O)cc3)c2c1`, inactive: -20.2%. Then `Cc1ccc(CSc2nc(=O)c3c(C)cc(C)nc3n2C2CC2)cc1`, with inactive: -5.35%.

For the molecule `Cc1ccc2c(c1)c(=O)c1ccccc1n2CCCC(=O)Nc1ccc(F)cc1F`, the “activation” value was inactive: -11.1%. Then `O=C(NC1CC(=O)N(c2ccccc2)C1)C1CCCC1` (configuration not stated), with inactive: -19.1%. Then `COc1ccc(Br)c2c1-c1nc(NC(=O)c3ccccc3SC)sc1C2`, with inactive: -4.76%; and `COCCNC(=O)CSc1nnc(-c2ccc(OC)c(OC)c2)c(-c2ccc(OC)c(OC)c2)n1`, with inactive: -18.3%. As to `CCOc1ccc(N2CC(c3nc4ccccc4n3CCCOc3ccc(OC)cc3)CC2=O)cc1` (configuration not stated), the “activation” value is inactive: -17.5%. Take `COC(=O)c1cc(Cl)c(NC(=O)/C=C/c2ccc(Cl)cc2Cl)cc1OC`: the “activation” value was inactive: -7.74%. For `Cc1cccc(C2NC(=O)c3c(sc4c3CCN(C)C4)N2)c1O` (configuration not stated) the value was inactive: 1.43%. For `CCOC(=O)c1ccc(NC2=CC(c3ccc(Br)cc3)N(c3ccc(C(=O)OCC)cc3)C2=O)cc1` (configuration not stated) the value was inactive: 0.337%; for `Cc1cccc(Oc2nc3c(C)cccn3c(=O)c2/C=C(\C#N)c2nc3ccccc3s2)c1`, inactive: -18.1%; for `COc1cccc(Cc2nc3ccccc3nc2SCC(=O)N2CCc3ccccc32)c1`, inactive: -6.33%. For `CCOC(=O)c1ccc(NC(=O)C(=O)NCc2ccco2)cc1` the value was inactive: -11.7%; for `Cc1c(C(=O)NCCN(C)C)oc2c1-c1nn(Cc3ccccc3Cl)cc1CC2`, inactive: -11.4%. Regarding `CC(Sc1nc(-c2ccccc2)c(C#N)c(=O)[nH]1)C(=O)Nc1ccc(F)cc1` (configuration not stated), the “activation” value was inactive: -12%. For `CCOC(=O)c1ccc(Nc2nc(C)cc(C)n2)cc1` the value was inactive: -9.96%; for `COc1ccc(N(CC(=O)N2CCN(c3cc(C)ccc3C)CC2)S(=O)(=O)c2c(C)noc2C)cc1`, inactive: -10.2%. For `COc1ccccc1-c1c(C)nn2c(N3CCN(c4ccc(Cl)cc4)CC3)cc(C)nc12`, the “activation” value was inactive: -3.07%. For `CC1=C(C(=O)Nc2ccccc2)C(c2ccc(C(=O)O)cc2)n2nc(SCC(=O)c3ccc(C)cc3)nc2N1` (configuration not stated) the value was inactive: -13.4%; for `CC(C)CCn1c(SCc2ccc(F)cc2Cl)nc2ccsc2c1=O`, inactive: -4.9%. As for `Cc1ccc(Cn2c(=O)c3c(nc4n3CCN4c3cc(C)cc(C)c3)n(C)c2=O)cc1`, the “activation” value is inactive: -9.52%.

Regarding `CCN(CC)CCn1c(=N)n(CC(O)COc2ccccc2C)c2ccccc21` (configuration not stated), the “activation” value was inactive: -10.1%. For `CCc1ccc(-c2[nH]c3c(c2-c2c(-n4cccc4)n(C)c(=O)n(C)c2=O)c(=O)n(C)c(=O)n3C)cc1` the value was inactive: -14.9%. Then `CC(C)c1ccc(C2c3c(-c4ccccc4O)n[nH]c3C(=O)N2CCc2ccccc2)cc1` (configuration not stated), with inactive: -40.8%; and `COc1ccc(-c2c(C)nn3c(N4CCC(C(=O)NCCC(C)C)CC4)cc(C)nc23)cc1OC`, with inactive: -9.96%; and `Cc1ccc(-n2ncc3c(NNC(=O)c4ccccc4C)ncnc32)cc1`, with inactive: -6.44%.

Consider `COc1ccc(CNC(=O)Cc2c(C)c3c(cc(C)c4c(C)coc43)oc2=O)cc1`, for which the “activation” value is inactive: -11%.

Consider `COc1ccc(Cl)cc1NC(=O)CCCn1c(=O)c2cccn2c2cccnc21`, for which the “activation” value is inactive: -13.3%.

On to `CCCN1CCN(CC2=C(C(=O)OCC)C(c3ccc(Cl)cc3)NC(=O)N2)CC1` (configuration not stated), for which the “activation” value is inactive: -10.4%. In the case of `C#CC1(O)CC[C@H]2[C@@H]3CCC4=CCCC[C@@H]4[C@H]3CC[C@@]21C` (some centres not stated), the “activation” value was inactive: -10.4%. Then `COCCCNC(=O)c1ccc(NC(=O)N2CCCCc3ccccc32)cc1`, with inactive: -12.4%; and `COc1ccc(-c2nc(CCNC(=O)c3cc(OC)c(OC)c(OC)c3)cs2)cc1`, with inactive: -20%.

Turning to `COc1ccc(-c2noc(CSc3nnc(-c4ccncc4)n3-c3ccccc3)n2)cc1`, the “activation” value was inactive: -7.18%.

With `Cc1ccccc1-c1noc(CSc2nnc(Cc3ccccc3)n2-c2ccc(F)cc2)n1`, the “activation” value is inactive: -14.8%. For `CCC(C)n1c(=N)c(S(=O)(=O)c2ccc(C)cc2)cc2c(=O)n3cc(C)ccc3nc21` (configuration not stated) the value was inactive: -12.8%; for `CCOC(=O)c1ccccc1NC(=O)N(Cc1ccc(C)cc1)Cc1cccn1-c1nnc(N2CCCC2=O)s1`, inactive: -32.8%. For `CCOC(=O)N1CCc2c(sc(NCc3ccc(OC)c(Br)c3)c2C(=O)Nc2cc(OC)ccc2OC)C1` the value was inactive: -2.96%; for `COC(=O)c1c(NC(=O)c2ccc(S(=O)(=O)N3CCCCC3C)cc2)sc2c1CCN(C(C)C)C2` (configuration not stated), inactive: -23%. For `COc1cccc(NC(=O)Cn2c(=O)n(CCCC(=O)NCc3ccc4c(c3)OCO4)c(=O)c3ccccc32)c1` the value was inactive: -5.73%.

Consider `Cc1ccc(CNC(=O)c2c(-c3ccccc3F)noc2C)o1`, for which the “activation” value was inactive: 4.49%. Then `CCCCOc1cccc(C(=O)N(Cc2ccc(Cl)cc2)C2CCS(=O)(=O)C2)c1` (configuration not stated), with inactive: -33.6%; and `Cc1ccc(-c2noc(-c3ccc(NCC4CCCO4)c([N+](=O)[O-])c3)n2)cc1` (configuration not stated), with inactive: -7.97%. For `COc1ccc(CCNC(=O)CSc2nnc(-c3ccc(C)cc3)c(-c3ccc(C)cc3)n2)cc1OC` the value was inactive: 4%.

As to `CCOc1ccc(C(=O)NCCS(=O)(=O)N2CCN(c3cccc(Cl)c3)CC2)cc1`, the “activation” value was inactive: 6.96%. Then `COc1ccccc1NC(=O)N1CC=C(c2c[nH]c3ccccc23)CC1`, with inactive: -12%; and `Cc1cc(=O)[nH]c2nnc(SCCC(C)C)n12`, with inactive: -22.3%.

For the molecule `CC(=O)Oc1ccc(C2(c3ccc(OC(C)=O)cc3)Oc3ccccc3NC2=O)cc1`, the “activation” value is inactive: -7.23%. For `COc1ccc(CNC(=O)CN(C)c2nn3c(=O)cc(C)nc3s2)cc1` the value was inactive: -20.7%; for `COc1cccc(C2=NN(S(C)(=O)=O)C(c3cn(-c4ccccc4)nc3-c3cccs3)C2)c1` (configuration not stated), inactive: 0.757%; for `CC(=O)c1ccc(N2CCN(C(=O)CS(=O)(=O)c3cccc4nsnc34)CC2)cc1`, inactive: 4.35%.

Turning to `Cc1cccc(NC(=O)c2oc3ccc(S(=O)(=O)N4CCCCC4)cc3c2C)c1C`, the “activation” value was inactive: -19.3%. Turning to `COc1ccc(-c2[nH]c(-c3ccc(OC)c(OC)c3)nc2SCC(=O)Nc2ccccc2)cc1`, the “activation” value was inactive: -19.4%. For `COc1cc(C(=O)Nc2ccccc2OCc2cc(=O)n3cc(C)sc3n2)cc(OC)c1OC` the value was inactive: 4.67%; for `Cc1ccc(-c2nnc(Nc3ccc(Cl)cc3)c3ccccc23)cc1S(=O)(=O)NCC1CCCO1` (configuration not stated), inactive: -18.2%. Then `O=C(c1cccc(Cl)c1)N1CCC(c2nc3c(nnn3Cc3ccc(F)cc3F)c(=O)[nH]2)CC1`, with inactive: -14.8%; and `COc1ccc(C(=O)c2cn(Cc3ccccc3F)c3ccc(F)cc3c2=O)cc1`, with inactive: -12.8%. Then `CCOc1ccccc1C(=O)N(Cc1ccc(N(C)C)cc1)Cc1ccco1`, with inactive: -32.5%; and `Cn1ccc2cc(S(=O)(=O)N3CCCN(C(=O)Nc4ccc(Br)cc4)CC3)ccc21`, with inactive: -17.8%; and `Cc1ccc(Nc2c(-c3ccc(N(C)C)cc3)nc3ccccn23)cc1`, with inactive: 3.21%. For `Cc1cccc(-c2nc3cc(NC(=O)Cc4ccc(Cl)cc4)ccc3o2)c1`, the “activation” value is inactive: -6.71%. Turning to `COc1ccc(NC(=O)c2c(NC(=O)COc3ccc(Cl)cc3)sc3c2CCCCC3)cc1`, the “activation” value is inactive: -7.44%.

Regarding `CCOC(CN1CCN(CC(C)C(=O)c2ccccc2)CC1)c1ccccc1` (configuration not stated), the “activation” value was inactive: -13.1% [at 23.8 µM]. For `CCN(C(=O)Cn1nc2c3cc(F)ccc3n(Cc3cccc(C)c3)cc-2c1=O)c1cccc(C)c1` the value was inactive: -0.308%; for `CCOC(=O)CCN(Cc1ccccc1)S(=O)(=O)c1csc(C(N)=O)c1`, inactive: -15.8%; for `CCN(CC)CCOC(=O)c1ccc(NC(=O)c2nn(-c3ccc(C)cc3)c(=O)c3c2c2ccccc2n3C)cc1`, inactive: -17.3%. Then `C[N+]1(C)[C@@H]2CC(OC(=O)[C@H](CO)c3ccccc3)C[C@H]1[C@@H]1O[C@@H]12` (some centres not stated), with inactive: -9.08%. Then `CCOC(=O)c1ccc2c(c1)N(CC(=O)Nc1cc(F)ccc1F)C(=O)c1ccccc1S2`, with inactive: -10.1%; and `O=C(NCCCN1CCN(c2ccc(F)cc2)CC1)c1cc2c(s1)-c1ccccc1OC2`, with inactive: 2.19%. Regarding `CC1=C(C(N)=O)C(c2cccc(C)c2)n2nc(-c3ccc(Cl)cc3)nc2N1` (configuration not stated), the “activation” value is inactive: -9.16%. For `CSc1ccccc1NC(=O)C1=CC(c2ccc3c(c2)OCO3)=NS(=O)(=O)N1C` the value was inactive: -8.74%. For `OCC(CO)N[C@H]1C[C@](O)(CO)[C@@H](O)[C@H](O)[C@H]1O` the value was inactive: -11.7%. Then `COc1ccc(Cn2nnc3c(=O)[nH]c(C4CCCN(C(=O)c5ccccc5Cl)C4)nc32)cc1OC` (configuration not stated), with inactive: -8.87%.

In the case of `N#Cc1cc2c(=O)n3ccccc3nc2n(-c2nnc(SCc3ccc(F)cc3)s2)c1=O`, the “activation” value is inactive: -5.74%. For `COc1ccc(CNC(=O)c2oc3c(c2C)-c2nn(Cc4ccccc4Cl)cc2CC3)cc1` the value was inactive: -23.5%. For `Cc1ccc(C)c(NC(=O)C(=O)NCC(c2cccnc2)N2CCN(c3ccc(F)cc3)CC2)c1` (configuration not stated) the value was inactive: -3.36%; for `COc1cc(OC)c(NC(=O)N2CCOc3ccc(C)cc32)cc1Cl`, inactive: -21.8%; for `Cc1ccc(-n2nc(C(=O)N3CCCCC3C)c(=O)n(C)c2=O)cc1` (configuration not stated), inactive: -12.8%. Then `CCOc1ccccc1NC(=O)C1CCN(S(=O)(=O)c2ccc(Br)cc2)CC1`, with inactive: 25.3%.
